# From PubChem BioAssay (NCATS)
# Values joined by “and” are separate entries in the source; they are usually repeats but may differ in a detail not shown here. Equal entries are not always repeated. The inconclusive results got no clear call from the source; some entries with a clear call stand among them for comparison. For some assays here: A potency beside an inconclusive call is a rough fit, not a confirmed value. For some assays here: “Side channel” marks fits to a control or component signal instead of the main read-out. Active and inactive are the calls of the source. Unless noted, the call rests on the fitted dose curve; in most records, active means well fitted curve in the direction sought with a large enough effect; inconclusive means small, poorly fitted or top-dose-only effect, or another doubt; inactive means no such curve, though single readings can be large; an effect the other way counts as inactive or inconclusive.
# What was measured:
# [1] = target: D(1A) dopamine receptor (Homo sapiens) (UniProt P21728); experiment: HTS Assay for Allosteric Agonists of the Human D1 Dopamine Receptor: Primary Screen for Potentiators (AID 488982); further: potency means the concentration at half of the fitted maximal effect
# Sequence of UniProt P21728 (P21728 whole entry, looked up): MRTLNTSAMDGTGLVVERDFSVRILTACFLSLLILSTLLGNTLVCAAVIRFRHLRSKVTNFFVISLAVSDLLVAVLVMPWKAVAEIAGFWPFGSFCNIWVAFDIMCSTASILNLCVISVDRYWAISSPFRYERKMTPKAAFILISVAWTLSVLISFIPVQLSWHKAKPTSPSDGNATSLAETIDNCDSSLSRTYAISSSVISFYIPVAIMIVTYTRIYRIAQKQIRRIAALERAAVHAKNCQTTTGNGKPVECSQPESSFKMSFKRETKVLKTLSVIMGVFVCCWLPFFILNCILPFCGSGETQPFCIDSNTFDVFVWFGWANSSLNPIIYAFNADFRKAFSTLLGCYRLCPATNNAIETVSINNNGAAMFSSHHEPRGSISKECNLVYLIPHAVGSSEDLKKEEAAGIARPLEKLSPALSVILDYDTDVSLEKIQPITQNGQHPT
# In short: (§1)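 Calcium flux in an inducible, force-coupled HEK293 Trex D1 line (overnight at 30 C): agonist mode is the 180 s kinetic read after compound; potentiator mode is the following 180 s read after dopamine at EC20.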
# [2] = target: ATP-dependent 6-phosphofructokinase (Trypanosoma brucei brucei) (UniProt O15648); experiment: qHTS Assay to Find Inhibitors of T. brucei phosphofructokinase: hit validation (AID 492961);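 further: luminescence reports ADP formed as PFK phosphorylates fructose-6-phosphate with ATP; on the % scale 0 is the no-effect control and ±100 the full control effect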
# Sequence of UniProt O15648 (O15648 whole entry, looked up): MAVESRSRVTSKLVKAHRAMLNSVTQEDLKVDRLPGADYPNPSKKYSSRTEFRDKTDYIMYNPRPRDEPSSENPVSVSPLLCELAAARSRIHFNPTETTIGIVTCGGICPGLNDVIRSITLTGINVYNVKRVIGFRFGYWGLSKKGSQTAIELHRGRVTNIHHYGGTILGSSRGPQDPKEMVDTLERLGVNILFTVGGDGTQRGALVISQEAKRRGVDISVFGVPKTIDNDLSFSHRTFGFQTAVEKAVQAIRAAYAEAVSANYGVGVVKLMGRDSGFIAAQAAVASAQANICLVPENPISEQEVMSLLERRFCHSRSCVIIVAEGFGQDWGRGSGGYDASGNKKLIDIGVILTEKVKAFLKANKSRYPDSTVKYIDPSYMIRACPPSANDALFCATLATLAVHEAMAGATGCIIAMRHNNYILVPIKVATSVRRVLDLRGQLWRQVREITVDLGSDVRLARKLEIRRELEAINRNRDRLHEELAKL
# In short: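 In this biochemical qHTS validation, titrated compounds were tested against 1.25 nM PFK with 0.1 mM ATP and 0.5 mM F6P. Percent activity came from controls lacking or containing enzyme.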
# [3] = target: ATPase family AAA domain-containing protein 5 (Homo sapiens) (UniProt Q96QE3); experiment: Validation screen for small molecules that inhibit ELG1-dependent DNA repair in human embryonic kidney (HEK293T) cells expressing luciferase-tagged ELG1 (AID 493107); further: nearly all actives have a fitted effect of over 70% in size; further: potency means the concentration at half of the fitted maximal effect
# Sequence of UniProt Q96QE3 (Q96QE3 whole entry, looked up, the tested form may be a part): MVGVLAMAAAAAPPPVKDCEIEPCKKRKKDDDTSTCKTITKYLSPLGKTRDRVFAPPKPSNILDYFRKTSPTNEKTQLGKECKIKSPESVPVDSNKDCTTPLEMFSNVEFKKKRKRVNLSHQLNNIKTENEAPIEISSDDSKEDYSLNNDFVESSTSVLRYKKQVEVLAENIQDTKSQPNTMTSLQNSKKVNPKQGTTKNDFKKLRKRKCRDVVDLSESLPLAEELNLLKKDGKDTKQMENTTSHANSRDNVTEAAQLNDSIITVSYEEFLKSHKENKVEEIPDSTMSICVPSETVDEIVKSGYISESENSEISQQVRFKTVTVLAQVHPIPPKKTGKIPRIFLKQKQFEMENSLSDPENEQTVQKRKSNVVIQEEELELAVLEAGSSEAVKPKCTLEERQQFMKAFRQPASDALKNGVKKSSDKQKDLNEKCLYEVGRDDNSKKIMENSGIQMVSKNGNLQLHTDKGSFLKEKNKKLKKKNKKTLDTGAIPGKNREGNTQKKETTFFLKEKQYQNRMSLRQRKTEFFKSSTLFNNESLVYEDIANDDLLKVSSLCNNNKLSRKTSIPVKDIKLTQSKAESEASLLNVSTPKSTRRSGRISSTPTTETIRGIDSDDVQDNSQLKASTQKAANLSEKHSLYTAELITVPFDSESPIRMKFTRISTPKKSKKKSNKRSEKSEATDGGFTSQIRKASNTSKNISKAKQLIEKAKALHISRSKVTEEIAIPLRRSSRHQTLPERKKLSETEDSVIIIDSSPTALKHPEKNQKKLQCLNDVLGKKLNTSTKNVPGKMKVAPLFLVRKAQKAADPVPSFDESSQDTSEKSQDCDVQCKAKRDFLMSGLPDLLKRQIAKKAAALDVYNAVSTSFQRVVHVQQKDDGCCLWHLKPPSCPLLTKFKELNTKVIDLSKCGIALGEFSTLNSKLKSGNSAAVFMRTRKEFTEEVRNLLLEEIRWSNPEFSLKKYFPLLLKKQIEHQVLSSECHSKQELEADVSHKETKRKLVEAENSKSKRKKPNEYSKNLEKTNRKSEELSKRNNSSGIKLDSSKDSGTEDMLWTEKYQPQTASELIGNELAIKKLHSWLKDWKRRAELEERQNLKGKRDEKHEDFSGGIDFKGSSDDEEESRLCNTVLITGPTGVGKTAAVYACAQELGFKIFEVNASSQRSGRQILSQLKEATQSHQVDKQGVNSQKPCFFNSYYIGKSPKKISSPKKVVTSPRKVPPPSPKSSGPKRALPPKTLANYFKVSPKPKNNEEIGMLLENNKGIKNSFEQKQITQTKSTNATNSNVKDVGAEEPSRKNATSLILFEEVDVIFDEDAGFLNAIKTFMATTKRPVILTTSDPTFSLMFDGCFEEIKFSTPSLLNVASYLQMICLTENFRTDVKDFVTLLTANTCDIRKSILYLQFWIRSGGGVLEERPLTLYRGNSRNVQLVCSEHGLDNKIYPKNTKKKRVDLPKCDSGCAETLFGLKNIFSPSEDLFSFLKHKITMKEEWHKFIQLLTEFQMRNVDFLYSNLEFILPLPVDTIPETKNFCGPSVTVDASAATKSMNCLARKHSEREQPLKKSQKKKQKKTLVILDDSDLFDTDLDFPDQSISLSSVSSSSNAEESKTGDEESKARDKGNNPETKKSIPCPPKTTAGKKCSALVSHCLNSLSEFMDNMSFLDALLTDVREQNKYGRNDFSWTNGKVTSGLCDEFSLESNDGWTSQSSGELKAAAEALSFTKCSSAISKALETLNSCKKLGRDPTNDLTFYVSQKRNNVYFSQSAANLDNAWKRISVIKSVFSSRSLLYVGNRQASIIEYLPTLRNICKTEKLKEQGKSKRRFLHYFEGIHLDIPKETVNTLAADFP
# In short: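 ELG1-luciferase HEK293T reporter; 5-fluorouridine + compound/DMSO, 16 hr, 37 °C, 5% CO2; ONE-Glo 30 min RT; luminescence read, qHTS format.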
# [4] = target: D(1A) dopamine receptor (Homo sapiens) (UniProt P21728); experiment: HTS Assay for Allosteric Agonists of the Human D1 Dopamine Receptor: Primary Screen for Antagonists (AID 488983);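 further: calcium flux response to an EC80 dopamine challenge measured with no-wash dye; nearly all actives have a fitted effect of over 65% in size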; further: potency means the concentration at half of the fitted maximal effect
# In short: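 Calcium flux readout, no-wash dye, inducible HEK293 T-REx D1 line (force-coupled). Compound added after 10 s baseline, 180 s kinetic read; then dopamine at EC80, further 180 s read.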
# [5] = Nrf2 qHTS screen for inhibitors: Validation (AID 493153; active means well fitted inhibition curve with a large enough effect in the main read-out, with a control signal flat, not every such curve was filed as active; inconclusive means small, poorly fitted or top-dose-only effect, or effect the other way, or a change in a side signal; inactive means no such curve, though single readings can be large or run the other way; further: potency means the concentration at half of the fitted maximal effect)
# In short: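 Concentration-response test in A549 ARE_Fluc reporter cells (5% FBS OPTI-MEM), compound exposure 18-24 h at 37°C, 5% CO2. Cell viability measured first by CellTiter-Fluor fluorescence; ARE-driven luciferase luminescence then measured as Nrf2 activity.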
# [6] = target: Ubiquitin carboxyl-terminal hydrolase 1 (Homo sapiens) (UniProt O94782); experiment: Inhibitors of USP1/UAF1: Pilot qHTS (AID 504865); further: potency means the concentration at half of the fitted maximal effect;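 further: rhodamine fluorescence freed from ubiquitin-rhodamine substrate followed over time; nearly all actives have a fitted effect of over 35% in size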
# Sequence of UniProt O94782 (O94782 whole entry, looked up): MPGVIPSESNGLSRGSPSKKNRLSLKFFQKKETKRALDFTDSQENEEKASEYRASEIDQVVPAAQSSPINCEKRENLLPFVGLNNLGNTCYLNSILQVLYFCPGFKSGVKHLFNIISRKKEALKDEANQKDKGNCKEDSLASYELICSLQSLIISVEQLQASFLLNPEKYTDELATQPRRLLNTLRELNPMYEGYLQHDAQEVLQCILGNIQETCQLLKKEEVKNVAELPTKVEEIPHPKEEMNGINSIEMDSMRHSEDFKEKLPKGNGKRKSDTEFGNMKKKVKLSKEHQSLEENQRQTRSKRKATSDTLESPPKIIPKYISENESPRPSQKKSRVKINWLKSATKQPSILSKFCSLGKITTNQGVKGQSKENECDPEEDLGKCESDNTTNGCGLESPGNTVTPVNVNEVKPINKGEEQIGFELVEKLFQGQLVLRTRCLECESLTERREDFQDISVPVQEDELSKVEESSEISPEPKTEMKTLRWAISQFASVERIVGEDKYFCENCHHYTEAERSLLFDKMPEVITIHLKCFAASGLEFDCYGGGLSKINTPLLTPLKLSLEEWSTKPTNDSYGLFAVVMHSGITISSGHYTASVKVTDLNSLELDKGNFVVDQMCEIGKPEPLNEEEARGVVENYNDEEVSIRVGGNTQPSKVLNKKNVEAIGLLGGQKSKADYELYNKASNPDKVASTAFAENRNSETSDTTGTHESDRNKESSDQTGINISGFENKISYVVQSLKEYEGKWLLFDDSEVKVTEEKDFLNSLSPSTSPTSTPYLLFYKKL
# In short: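 USP1/UAF1 complex (1nM) preincubated with compound 15 min at room temperature, then Ub-Rho substrate (150nM final) added. Fluorescence read kinetically at 480/540 nm, 6 reads every 60 seconds. Buffer: 50mM HEPES pH 7.8, 0.5mM EDTA, 0.1 mg/ml BSA, 1mM TCEP, 0.01% Tween-20.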
# [7] = qHTS for Inhibitors of ATXN expression: Validation of Cytotoxic Assay (AID 588349); further: potency means the concentration at half of the fitted maximal effect
# In short: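 Cytotoxicity counter-screen: HEK293 cells exposed to compound titrations, 72 hr, 37 degrees C. Read-out is intracellular ATP (CellTiter Glo luminescence) as a viability measure.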
# [8] = qHTS for Inhibitors of ATXN expression: Validation (AID 588378); further: nearly all actives have a fitted effect of over 75% in size; further: potency means the concentration at half of the fitted maximal effect
# In short: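 Luminescence from an ATXN2-FFLuc reporter in HEK293 cells served as read-out after 24 h compound treatment at 37 degrees C; CellTiter-Fluor fluorescence was recorded first to assess viability.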
# [9] = target: phosphoglycerate mutase (Leishmania major) (UniProt Q4Q090); experiment: qHTS Validation Assay to Find Inhibitors of Phosphoglycerate Mutase (AID 504548); conditions: Potency: inhibition qHTS;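 further: end-point luminescence from Kinase-GloPlus after the PGAM reaction; on the % scale 0 is the no-effect control and ±100 the full control effect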
# In short: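 L. major PGAM (1.25nM final) was added to substrate buffer and pinned compound, incubated 45 minutes at room temperature, then Kinase-GloPlus added; luminescence read after 10 minutes. Buffer: 100 mM TEA pH 7.6, 5 mM MgCl2, 0.01% Tween-20.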
# [10] = target: Tyrosyl-DNA phosphodiesterase 1 (Homo sapiens) (UniProt Q9NUW8); experiment: Confirmation Assay for Inhibitors of Tyrosyl-DNA Phosphodiesterase (TDP1) (AID 489007); conditions: recombinant human TDP1 enzymatic activity, dose-response; further: potency means the concentration at half of the fitted maximal effect; nearly all actives have a fitted effect of over 40% in size
# Sequence of UniProt Q9NUW8 (Q9NUW8 whole entry, looked up): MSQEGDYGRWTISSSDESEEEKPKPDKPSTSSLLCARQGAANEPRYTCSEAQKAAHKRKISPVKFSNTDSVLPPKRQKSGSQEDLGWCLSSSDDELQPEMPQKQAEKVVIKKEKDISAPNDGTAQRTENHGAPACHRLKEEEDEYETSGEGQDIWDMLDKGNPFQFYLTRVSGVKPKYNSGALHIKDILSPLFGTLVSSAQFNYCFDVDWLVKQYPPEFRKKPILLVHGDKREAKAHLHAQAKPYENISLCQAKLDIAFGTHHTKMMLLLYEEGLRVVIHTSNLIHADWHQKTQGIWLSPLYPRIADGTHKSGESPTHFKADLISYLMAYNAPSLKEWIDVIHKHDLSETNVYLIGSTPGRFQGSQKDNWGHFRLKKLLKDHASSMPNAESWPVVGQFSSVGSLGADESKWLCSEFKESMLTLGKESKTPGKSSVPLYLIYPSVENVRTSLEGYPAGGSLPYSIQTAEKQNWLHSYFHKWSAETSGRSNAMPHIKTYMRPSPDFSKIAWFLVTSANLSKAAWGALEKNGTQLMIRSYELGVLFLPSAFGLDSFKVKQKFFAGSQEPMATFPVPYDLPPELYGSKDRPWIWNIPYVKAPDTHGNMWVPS
# In short: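 AlphaScreen read-out: streptavidin donor and anti-FITC acceptor beads (10 ug/ml) bind intact substrate, so Tdp1 removal of tyrosine-FITC lowers signal. Enzyme 1 nM, substrate 15 nM, 5 min reaction at room temperature after 15 min compound preincubation.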
# [11] = Validation screen for small molecules that induce genotoxicity in human embryonic kidney (HEK293T) cells expressing luciferase-tagged ELG1 (AID 493106); conditions: luminescence; at 46.1 µM (top of the series); further: 0% is about no effect
# In short: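 qHTS format; 2,000 HEK293T ELG1-luc cells/well; 23 nL compound via pin tool; 16 hr, 37 °C/5% CO2; ONE-Glo, 30 min RT; luminescence read.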
# [12] = target: Estrogen receptor (Homo sapiens) (UniProt P03372); experiment: qHTS assay for small molecule antagonists of estrogen receptor alpha signaling (AID 588513; active means well fitted curve in the direction sought with a large enough effect in the signal ratio, with a control signal flat, not every such curve was filed as active; inconclusive means small, poorly fitted or top-dose-only effect, or effect the other way, or a change in a side signal; inactive means no such curve, though single readings can be large or run the other way; the % refers to the signal ratio; further: on the % scale 0 is the no-effect control and ±100 the full control effect); conditions: ER-alpha-UAS-bla HEK293, beta-lactamase ratio, antagonist mode; activity, negative = inhibition: at 76.9 µM (top of the series) unless noted
# Sequence of UniProt P03372 (P03372 whole entry, looked up): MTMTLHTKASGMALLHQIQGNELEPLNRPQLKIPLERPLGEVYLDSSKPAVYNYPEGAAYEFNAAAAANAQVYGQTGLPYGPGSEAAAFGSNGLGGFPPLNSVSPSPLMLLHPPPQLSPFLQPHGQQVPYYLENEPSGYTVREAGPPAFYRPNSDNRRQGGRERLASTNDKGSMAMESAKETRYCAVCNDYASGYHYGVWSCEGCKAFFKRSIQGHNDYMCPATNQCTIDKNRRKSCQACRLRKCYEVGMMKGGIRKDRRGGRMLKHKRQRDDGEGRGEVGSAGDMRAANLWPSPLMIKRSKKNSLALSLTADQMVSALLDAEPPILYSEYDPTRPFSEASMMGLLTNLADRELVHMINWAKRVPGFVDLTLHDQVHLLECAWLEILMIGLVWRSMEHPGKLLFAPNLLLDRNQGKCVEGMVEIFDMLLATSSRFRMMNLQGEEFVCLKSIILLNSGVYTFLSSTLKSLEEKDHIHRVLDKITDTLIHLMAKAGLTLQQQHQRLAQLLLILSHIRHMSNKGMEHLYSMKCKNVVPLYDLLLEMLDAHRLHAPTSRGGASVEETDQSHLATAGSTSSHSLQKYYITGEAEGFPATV
# In short: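 ER-alpha-UAS-bla GripTite HEK 293 cells in medium with 2% charcoal/dextran-treated FBS were preincubated 4 h at 37 C, dosed with compound (1:2 titration), stimulated with 0.5nM 17-beta-estradiol for 18 h, then read by CCF4 beta-lactamase fluorescence.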
# [13] = target: D(1A) dopamine receptor (Homo sapiens) (UniProt P21728); experiment: HTS Assay for Allosteric Agonists of the Human D1 Dopamine Receptor: Primary Screen for Agonists (AID 488981); further: potency means the concentration at half of the fitted maximal effect
# In short: as §1
# [14] = target: Peptidyl-prolyl cis-trans isomerase NIMA-interacting 1 (Homo sapiens) (UniProt Q13526); experiment: qHTS Validation Assay to Find Inhibitors of Pin1 (AID 504536; active means well fitted inhibition curve with a large enough effect in the polarisation, with a control signal flat, not every such curve was filed as active; inconclusive means small, poorly fitted or top-dose-only effect, or effect the other way; the % refers to the polarisation; further: potency means the concentration at half of the fitted maximal effect)
# Sequence of UniProt Q13526 (Q13526 whole entry, looked up): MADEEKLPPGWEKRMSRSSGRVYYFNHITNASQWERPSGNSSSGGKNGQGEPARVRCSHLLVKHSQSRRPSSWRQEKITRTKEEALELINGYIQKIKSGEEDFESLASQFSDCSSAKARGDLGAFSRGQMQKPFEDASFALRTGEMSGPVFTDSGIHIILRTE
# In short: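 Fluorescence polarization competition: compounds (titration) displace HiFluor-488-labeled Pin1-1b peptide from Pin1 (0.3 uM final) in pH 7.5 HEPES buffer with DTT, 10 min at room temperature; %Activity normalized to no-enzyme wells, curves fitted.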
# Tags describe the fitted curve by direction and shape or compound fluorescence and quenching.
compound,measurement,setting,value
Nc1nnc(-c2cccc(Cl)c2Cl)c(N)n1,Potency,[1],"inconclusive: 231 nM [activator, partial curve, poor fit]"
CCOC(=O)O[C@]1(C(=O)OCCl)CC[C@@H]2[C@H]3CCC4=CC(=O)C=C[C@]4(C)[C@@H]3[C@@H](O)C[C@@]21C,Potency,[2],inactive
CC1COc2c(N3CCN(C)CC3)c(F)cc3c(=O)c(C(=O)O)cn1c23 (stereo unspecified),Potency,[3],inactive
CC1(C)C(=O)N(CCN2CCC(C(=O)c3ccc(F)cc3)CC2)c2ccccc21,Potency,[4],active: 4.47 µM
same,Potency,[3],"inconclusive: 23.1 µM [inhibitor, single point]"
same,Potency,[5],"inconclusive: 20.6 µM [inhibitor, single point]"
same,Potency,[6],inactive
same,Potency,[7],"inconclusive: 17.8 µM [cytotoxic, partial curve, poor fit]"
same,Potency,[8],"inconclusive: 28.2 µM [inhibitor, single point]"
CCCNCC(O)COc1ccccc1C(=O)CCc1ccccc1 (stereo unspecified),Potency,[1],inactive
same,Potency,[4],active: 10 µM
same,Potency,[5],"inconclusive: 0.651 µM [inhibitor, partial curve, poor fit]"
same,Potency,[7],"inconclusive: 35.5 µM [cytotoxic, single point]"
same,Potency,[8],"inconclusive: 17.8 µM [inhibitor, partial curve, poor fit]"
CN(C)C(=O)C(CCN1CCC(O)(c2ccc(Cl)cc2)CC1)(c1ccccc1)c1ccccc1,Potency,[4],inactive
same,Potency,[9],inactive
CC(COc1ccccc1)N(CCCl)Cc1ccccc1 (stereo unspecified),Potency,[3],inactive
Oc1ccc(-c2nc(-c3ccc(F)cc3)c(-c3ccncc3)[nH]2)cc1,Potency,[3],"inconclusive: 29.1 µM [inhibitor, single point]"
same,Potency,[5],"inconclusive: 6.51 µM [inhibitor, partial curve, poor fit]"
same,Potency,[6],"inconclusive: 63.1 µM [inhibitor, partial curve, poor fit]"
NC(=O)c1ccc2[nH]ccc2c1,Potency,[3],"inconclusive: 32.6 µM [activator, single point]"
Cc1cnc(C(=O)NCCc2ccc(S(=O)(=O)NC(=O)NC3CCCCC3)cc2)cn1,Potency,[3],"inconclusive: 32.6 µM [activator, partial curve, poor fit]"
Nc1nc(OCc2ccccc2)c2[nH]cnc2n1,Potency,[3],inactive
same,Potency,[5],inactive
same,Potency,[6],inactive
Clc1ccc(C(c2ccccc2Cl)C(Cl)Cl)cc1 (stereo unspecified),Potency,[10],"inconclusive: 112 µM [inhibitor, single point]"
same,Potency,[5],"inconclusive: 32.6 µM [inhibitor, partial curve, poor fit]"
same,Potency,[7],inactive
Cc1cnc(C(=O)O)c[n+]1[O-],Potency,[2],inactive
CNC[C@H](O)c1cccc(O)c1,Potency,[4],"inconclusive: 5.62 µM [inhibitor, partial curve]"
same,"activity change, positive = ELG1 induction",[11],inactive: -4.45%
Cc1ccc(N(CC2=NCCN2)c2cccc(O)c2)cc1,Potency,[4],"inconclusive: 12.6 µM [inhibitor, partial curve]"
same,Potency,[3],"inconclusive: 29.1 µM [inhibitor, single point]"
same,Potency,[5],inactive
same,Potency,[7],"inconclusive: 39.8 µM [cytotoxic, single point]"
same,Potency,[8],"inconclusive: 39.8 µM [inhibitor, single point]"
CC(CCc1ccc(O)cc1)NCCc1ccc(O)c(O)c1 (stereo unspecified),Potency,[1],"inconclusive: 326 nM [activator, full curve, poor fit]"
same,Potency,[7],"inconclusive: 35.5 µM [cytotoxic, single point]"
same,Potency,[8],"inconclusive: 35.5 µM [inhibitor, single point]"
NS(=O)(=O)c1cc2c(cc1Cl)NCNS2(=O)=O,Potency,[4],inactive
same,Potency,[3],"inconclusive: 32.6 µM [activator, partial curve, poor fit]"
same,Potency,[12],inactive
S=c1nc[nH]c2nc[nH]c12,Potency,[10],"inconclusive: 39.8 µM [inhibitor, partial curve]"
OCCN(CCO)c1nc(N2CCCCC2)c2nc(N(CCO)CCO)nc(N3CCCCC3)c2n1,Potency,[13],active: 10 µM
same,Potency,[1],active: 2910 nM
same,Potency,[4],"inconclusive: 11.2 µM [activator, partial curve]"
same,Potency,[3],active: 0.231 µM
same,Potency,[14],"inconclusive: 26.9 µM [fluorescent, side channel, partial curve]"
same,Potency,[6],active: 31.6 µM and active: 22.4 µM
same,Potency,[7],"inconclusive: 28.2 µM [rising, partial curve]"
same,Potency,[8],inactive
CCOC(=O)C1=C[C@]2(CC)CCCN3CCc4c(n1c1ccccc41)[C@@H]32,Potency,[1],active: 3260 nM
same,Potency,[4],"inconclusive: 8.91 µM [activator, partial curve]"
same,Potency,[3],"inconclusive: 29.1 µM [inhibitor, single point]"
same,Potency,[6],"inconclusive: 56.2 µM [inhibitor, partial curve, poor fit] and inconclusive: 79.4 µM [inhibitor, partial curve]"
same,Potency,[8],inactive
